From a collection of fitness landscapes (doi:10.1016/j.celrep.2020.107928)
Over roughly 81,000 sequences, “one-hybrid fitness for binding parS DNA” has its median near -0.17; the highest 2% begin near 0.51. The list shows a part of the results.

B1: Caulobacter ParB omega fusion; a variant is named by its letters at X, in order, B8GW30 (parent)
chain: MESVVVGEPGMSEGRRGLGRGLSALLGEVDAAPAQAPGEQLGGSREAPIEILQRNPDQPRRTFREEDLEDLSNSIREKGVLQPILVRPSPDTAGEYQIVAGERAWRAAQRAGLKTVPIMVRELDDLAVLEIGIIENVQRADLNVLEEALSYKVLMEKFERTQENIAQTIGKSXSHVANXMRLLXLPDEVQSYLVSGELTAXHARAIAAAADPVALAKQIIEGGLSVRETEALARKAPNLSAGKSKGGRPPRVKDTDTQALESDLSSVLGLDVSIDHRGSTGTLTITYATLEQLDDLCNRLTRGI

Variants of: B1
Test: one-hybrid fitness for binding parS DNA (scaled: cognate 1, non-cognate 0); higher = stronger binding
Conditions: with parS DNA site
In short: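 Fitness here means the log change in variant-to-wild-type read ratio between plasmids sequenced before and after selection. That scale was set so cognate equals 1 and non-cognate equals 0. The selection was a bacterial one-hybrid screen of Caulobacter ParB libraries, four specificity codons randomised, in E. coli USO carrying a HIS3 reporter with the site 19 bp from the promoter, grown 48 hours at 37°C on M9-minus-histidine with 0.1 mM IPTG and 5 mM 3-AT.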

Variant	one-hybrid fitness for binding parS DNA
TMHK	≤ 0.2
DGTR	≤ 0.2
SIRR	≤ 0.2
QFRV	≤ 0.2
ATPY	≤ 0.2
LGIW	≤ 0.2
QKCR	≤ 0.2
RQPT	0.387
AFTL	≤ 0.2
RCMT	0.921
SLSR	≤ 0.2
RARL	≤ 0.2
EKVL	≤ 0.2
KCGS	≤ 0.2
PMHL	≤ 0.2
HLGS	≤ 0.2
LETL	≤ 0.2
FPTC	≤ 0.2
NTLW	≤ 0.2
MYND	≤ 0.2
REVT	≤ 0.2
RPKL	≤ 0.2
RQLR	≤ 0.2
LQEM	≤ 0.2
ALHR	≤ 0.2
RVHY	0.481

Variant	one-hybrid fitness for binding parS DNA
RWTN	0.338
LQKG	≤ 0.2
TLAR	≤ 0.2
KVSV	≤ 0.2
RVHQ	≤ 0.2
AYYY	≤ 0.2
YSGD	≤ 0.2
NINM	≤ 0.2
TCRY	≤ 0.2
DSEM	≤ 0.2
LFPW	≤ 0.2
VAMC	≤ 0.2
RLPM	≤ 0.2
QYTF	≤ 0.2
TQLL	≤ 0.2
GVCN	≤ 0.2
GASL	≤ 0.2
GLHC	≤ 0.2
TLYP	≤ 0.2
RRNE	≤ 0.2
RTSL	≤ 0.2
TSHE	≤ 0.2
RHAP	≤ 0.2
YSAN	≤ 0.2
QNTS	≤ 0.2
LRAD	≤ 0.2

Variant	one-hybrid fitness for binding parS DNA
MTSP	≤ 0.2
QMSD	≤ 0.2
YSRP	≤ 0.2
SCHR	≤ 0.2
QMCG	≤ 0.2
WKIC	≤ 0.2
ESDN	≤ 0.2
ISRY	≤ 0.2
LHHR	≤ 0.2
KVGG	≤ 0.2
KDRR	≤ 0.2
PEHV	≤ 0.2
PVVN	≤ 0.2
NLFC	≤ 0.2
IRFG	≤ 0.2
QDRV	≤ 0.2
IAVF	≤ 0.2
TNRC	≤ 0.2
LSKF	≤ 0.2
VDCN	≤ 0.2
WKHL	0.238
RQWM	0.233
TSQS	≤ 0.2
TYNL	≤ 0.2
GQGT	≤ 0.2
GCTG	≤ 0.2

Variant	one-hybrid fitness for binding parS DNA
TFKS	≤ 0.2
REDC	≤ 0.2
AMML	≤ 0.2
ADPY	≤ 0.2
LGSG	≤ 0.2
KMDK	≤ 0.2
IHYR	≤ 0.2
IVAT	≤ 0.2
ALYS	≤ 0.2
LPIN	≤ 0.2
LFQC	≤ 0.2
TTNI	≤ 0.2
VSAY	≤ 0.2
LNGT	≤ 0.2
ISKR	≤ 0.2
QNHC	≤ 0.2
TFYL	≤ 0.2
PRGG	≤ 0.2
AGTA	≤ 0.2
FPDS	≤ 0.2
KSHL	≤ 0.2
HRKF	≤ 0.2
VPRF	≤ 0.2
ATDS	≤ 0.2
VESK	≤ 0.2
RHMV	≤ 0.2

Variant	one-hybrid fitness for binding parS DNA
TRKG	≤ 0.2
SAPV	≤ 0.2
WTGN	≤ 0.2
HPSQ	≤ 0.2
RFDA	0.46
TLKA	≤ 0.2
VGLS	≤ 0.2
DPPI	≤ 0.2
RKPC	0.488
PPST	≤ 0.2
RSWD	≤ 0.2
VFVT	≤ 0.2
YAAN	≤ 0.2
MYIG	≤ 0.2
HSLP	≤ 0.2
FCTR	≤ 0.2
GMSY	≤ 0.2
AWEW	≤ 0.2
TMTY	≤ 0.2
APIY	≤ 0.2
QHHW	≤ 0.2
PGGE	≤ 0.2
RTLL	≤ 0.2
APDC	≤ 0.2
CNPA	≤ 0.2
QSEG	≤ 0.2

Variant	one-hybrid fitness for binding parS DNA
LHFC	≤ 0.2
NTDM	≤ 0.2
QPRI	≤ 0.2
FPQS	≤ 0.2
QVKR	≤ 0.2
EFTS	≤ 0.2
AFDY	≤ 0.2
QTSY	≤ 0.2
PIHG	≤ 0.2
PGPT	≤ 0.2
PHVR	≤ 0.2
RLRN	0.432
RHVR	≤ 0.2
LIHK	≤ 0.2
TTTC	≤ 0.2
CLSS	≤ 0.2
FAQW	≤ 0.2
PHVC	≤ 0.2
QVWR	≤ 0.2
ILVC	≤ 0.2
KISS	≤ 0.2
QIAI	≤ 0.2
SCMA	≤ 0.2
